# Data from PubChem BioAssay AID1345082 (National Center for Advancing Translational Sciences (NCATS), 2018).
# About 4,000 (4.3%) of roughly 94,000 compounds were called active. Inconclusive results, whose numbers are uncertain, are shown with a selection of clear calls. The call rests on the fitted dose curve; in most records, active means well fitted inhibition curve with a large enough effect; inconclusive means small, poorly fitted or top-dose-only effect; inactive means no such curve, though single readings can be large or run the other way. A potency beside an inconclusive call is a rough fit, not a confirmed value.
# Experiment: Cytotoxic Profiling in NIH 3T3 Cell Line of Diverse Libraries Using Quantitative High-Throughput Screening; further: nearly all actives have a fitted effect of over 55% in size
# Conditions: NIH 3T3 viability, CellTiter-Glo ATP luminescence, 48-72 h; activity change, negative = cytotoxicity: at 96.7 µM (top of the series) unless noted; series mostly up to 96.7 µM
# Outline: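 Luminescent ATP readout (CellTiter-Glo, 10 min RT) after 48 or 72 hr compound exposure of NIH 3T3 cells seeded at 400 cells/well in 1536-well format; quantitative HTS.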
# On the % scale 0 is the no-effect control and ±100 the full control effect; potency means the concentration at half of the fitted maximal effect; tags describe the fitted curve by direction and shape.
Compound,Potency,"activity change, negative = cytotoxicity",outcome
CCOc1ccc(CC(=O)NCCn2ccn3nc(-c4ccc(C)cc4C)cc3c2=O)cc1,"inconclusive: 44.7 µM [inhibitor, partial curve, poor fit]",–,–
CC1(COc2ccccc2)COc2ccc(C(=O)NCc3ccncc3)cc2N1 (configuration not stated),"inconclusive: 89.1 µM [inhibitor, partial curve, poor fit]",–,–
COc1ccc(C(=O)N2CCC(Oc3ccc(-c4noc(C(C)C)n4)cc3)C2)cc1 (configuration not stated),"inconclusive: 44.7 µM [inhibitor, partial curve, poor fit]",–,–
COc1ccc(NC(=O)N2CCCC2c2nncn2C2CCCC2)c(OC)c1 (configuration not stated),"inconclusive: 35.5 µM [inhibitor, single point]",–,–
OCC1(Cc2ccccc2F)CCCN(c2nccc(C(F)(F)F)n2)C1 (configuration not stated),"inconclusive: 50.1 µM [inhibitor, partial curve, poor fit]",–,–
O=C(NC[C@H]1O[C@@H]2C[C@@H](CC(=O)N3CCC(F)(F)C3)O[C@@H]2[C@@H]1O)Nc1cccc(Cl)c1,–,inactive: -12.9%,–
Cc1nnc2ccc(N3CCCC(NC(=O)c4ccccc4)C3)nn12 (configuration not stated),–,inactive: -13.3% [at 138 µM],–
O=C(NCCN1CCCC1)c1c(OCC2CC2)cc(=O)n2c1CCOCC2,–,–,inactive
Cc1ccc(S(=O)(=O)N2CCCC(Cn3c(C4CC4)nc4cccnc43)C2)cc1C (configuration not stated),"inconclusive: 70.8 µM [inhibitor, single point]",–,–
COCCN1CC(CO)C2(CCN(Cc3ccccc3C(F)(F)F)CC2)C1 (configuration not stated),"inconclusive: 44.7 µM [inhibitor, partial curve, poor fit]",–,–
COCCN(Cc1ccc(C)cc1)Cc1ccc(C#N)cc1,"inconclusive: 50.1 µM [inhibitor, partial curve, poor fit]",–,–
COc1cc(NC(=O)Cn2c(N3CCC(C)CC3)nc(C)cc2=O)cc(OC)c1,"inconclusive: 31.6 µM [inhibitor, partial curve, poor fit]",–,–
COc1ccc(-c2nc(C3CC3)nc3c2CN(C(=O)c2ccccn2)CC3)cc1,–,inactive: -29.7%,–
O=C1NN=C(C2CC2)C12CCN([S+](=O)([O-])c1cccc(C(F)(F)F)c1)CC2,"inconclusive: 44.7 µM [inhibitor, partial curve, poor fit]",–,–
C[C@]1(CO)[C@H]2Cc3sc(NC(=O)c4c(F)cccc4F)nc3[C@@H](CC(=O)NC3CCCC3)[C@]2(C)CC[C@H]1O,"inconclusive: 89.1 µM [inhibitor, single point]",–,–
COc1ccc(CCN2Cc3cc(NC(=O)Cc4cccs4)ccc3OCC2=O)cc1,"inconclusive: 50.1 µM [inhibitor, partial curve, poor fit]",–,–
CC(=O)N1CCCCCC1c1nc(-c2cccnc2)no1 (configuration not stated),–,inactive: -22.5%,–
NC(=O)c1cccc(-c2cc3c(cn2)CN(Cc2ccncc2)CCN3)c1,"inconclusive: 89.1 µM [inhibitor, partial curve]",–,–
CCc1nc2c(c(-c3ccc(O)cc3)n1)CN(C(=O)c1ccc(C(F)(F)F)cc1)CC2,–,inactive: -27.6%,–
Cc1cc(C(=O)N2c3ccccc3CC2c2nc(C(C)C)no2)nn1C (configuration not stated),–,inactive: -19.7%,–
CN(Cc1cccs1)c1cc(C2CC(O)C2)ncn1 (configuration not stated),"inconclusive: 6.31 µM [inhibitor, partial curve, poor fit]",–,–

Compound,Potency,"activity change, negative = cytotoxicity",outcome
COCCCN1CCCC2(CCN(C(=O)NCc3cccc(F)c3)C2)C1=O (configuration not stated),–,inactive: 0.819%,–
CNC(=O)c1cc(C2CC2)nc2c1c(C1CCCN(C(=O)Cc3ccc(F)cc3)C1)nn2C (configuration not stated),"inconclusive: 50.1 µM [inhibitor, partial curve, poor fit]",–,–
CCN1C[C@H]2COc3cc(OC)ccc3[C@H]2N(C(=O)C2CCCC2)CCC1=O,"inconclusive: 56.2 µM [inhibitor, partial curve, poor fit]",–,–
O[C@@H]1C[C@@H](c2nc(-c3ccc4c(c3)OCO4)no2)N(CC2CCCCC2)C1,active: 89.1 µM,–,–
N#Cc1ccc(S(=O)(=O)N2CCCCCCNC(=O)CC2c2ccccc2)cc1 (configuration not stated),"inconclusive: 50.1 µM [inhibitor, partial curve, poor fit]",–,–
CC1(c2cccnc2)N(Cc2ccccc2)C(=O)OC12CCN(C(=O)CN1CCOCC1)CC2 (configuration not stated),"inconclusive: 50.1 µM [inhibitor, partial curve, poor fit]",–,–
COc1ccc(Cn2c(C3CCN(C(=O)Cc4ccccc4Cl)CC3)n[nH]c2=O)cc1,–,inactive: -22.5%,–
Cc1ccccc1CC(=O)N1CCN(c2cc(-c3cccs3)[nH]n2)CC1,"inconclusive: 39.8 µM [inhibitor, partial curve, poor fit]",–,–
Cc1ccc(-c2cc3c(=O)n(CCNC(=O)c4ccc(N(C)C)cc4)ccn3n2)cc1C,–,–,inactive
Cc1nsc(NC(=O)N2CCCN(c3ccccc3)CC2)n1,"inconclusive: 35.5 µM [inhibitor, full curve]",–,–
Cc1nn(-c2ccccc2)c2c1C(C1CC1)N(CC1CN(C(=O)C3CCCC3)C1)C2=O (configuration not stated),active: 44.7 µM,–,–
O=C(NC1CCCN(c2ccnc3ccnn23)C1)c1cc(F)ccc1Br (configuration not stated),"inconclusive: 39.8 µM [inhibitor, partial curve, poor fit]",–,–
Cc1ncc2n1C(=O)N(C1CCN(C(=O)c3ccc(F)cc3)CC1)C2,–,inactive: -16.2%,–
CC1(c2ccccc2)N(Cc2ccccc2F)C(=O)OC12CCN(Cc1cccc(O)c1)CC2 (configuration not stated),"inconclusive: 44.7 µM [inhibitor, partial curve, poor fit]",–,–
O=c1c2nc(Nc3ccc(C(F)(F)F)cc3)ccc2ncn1Cc1ccccn1,"inconclusive: 100 µM [inhibitor, single point]",–,–
C=CCN(C(=O)CC1COc2ccc(C(=O)N(C)C)cc2N1C)C(C)C (configuration not stated),–,inactive: -21%,–
CN(C)[C@@H]1CN(C(=O)c2cc(Cl)ccc2F)C[C@H]1CO,–,inactive: -4.82%,–
Oc1ccccc1CN1CCOC[C@H]1c1ncc(-c2ccc(C(F)(F)F)cc2)[nH]1,active: 50.1 µM,–,–
CCN(CC)C(=O)C(C)[C@@H]1CC[C@@]2(C)Cc3sc(NC(=O)C4CC4)nc3[C@@H](C)[C@@H]2[C@H]1O (some centres not stated),–,inactive: -19.4%,–
O=C(c1ccc2ccccc2n1)N1CCC(c2n[nH]c(=O)n2-c2ccccc2)CC1,active: 44.7 µM,–,–
O=C(C1CC1)N1CCC(Cc2nc(-c3ccccc3)n[nH]2)C1 (configuration not stated),"inconclusive: 70.8 µM [inhibitor, single point]",–,–
